In all, about 310,000 compounds went through this assay and about 2,200 (0.71%) showed an effect of 50% or more. Effects have a minus sign here. The list shows a part of the results.

Sequence of human ether-à-go-go-related gene (hERG) potassium channel (Q12809 whole entry, looked up): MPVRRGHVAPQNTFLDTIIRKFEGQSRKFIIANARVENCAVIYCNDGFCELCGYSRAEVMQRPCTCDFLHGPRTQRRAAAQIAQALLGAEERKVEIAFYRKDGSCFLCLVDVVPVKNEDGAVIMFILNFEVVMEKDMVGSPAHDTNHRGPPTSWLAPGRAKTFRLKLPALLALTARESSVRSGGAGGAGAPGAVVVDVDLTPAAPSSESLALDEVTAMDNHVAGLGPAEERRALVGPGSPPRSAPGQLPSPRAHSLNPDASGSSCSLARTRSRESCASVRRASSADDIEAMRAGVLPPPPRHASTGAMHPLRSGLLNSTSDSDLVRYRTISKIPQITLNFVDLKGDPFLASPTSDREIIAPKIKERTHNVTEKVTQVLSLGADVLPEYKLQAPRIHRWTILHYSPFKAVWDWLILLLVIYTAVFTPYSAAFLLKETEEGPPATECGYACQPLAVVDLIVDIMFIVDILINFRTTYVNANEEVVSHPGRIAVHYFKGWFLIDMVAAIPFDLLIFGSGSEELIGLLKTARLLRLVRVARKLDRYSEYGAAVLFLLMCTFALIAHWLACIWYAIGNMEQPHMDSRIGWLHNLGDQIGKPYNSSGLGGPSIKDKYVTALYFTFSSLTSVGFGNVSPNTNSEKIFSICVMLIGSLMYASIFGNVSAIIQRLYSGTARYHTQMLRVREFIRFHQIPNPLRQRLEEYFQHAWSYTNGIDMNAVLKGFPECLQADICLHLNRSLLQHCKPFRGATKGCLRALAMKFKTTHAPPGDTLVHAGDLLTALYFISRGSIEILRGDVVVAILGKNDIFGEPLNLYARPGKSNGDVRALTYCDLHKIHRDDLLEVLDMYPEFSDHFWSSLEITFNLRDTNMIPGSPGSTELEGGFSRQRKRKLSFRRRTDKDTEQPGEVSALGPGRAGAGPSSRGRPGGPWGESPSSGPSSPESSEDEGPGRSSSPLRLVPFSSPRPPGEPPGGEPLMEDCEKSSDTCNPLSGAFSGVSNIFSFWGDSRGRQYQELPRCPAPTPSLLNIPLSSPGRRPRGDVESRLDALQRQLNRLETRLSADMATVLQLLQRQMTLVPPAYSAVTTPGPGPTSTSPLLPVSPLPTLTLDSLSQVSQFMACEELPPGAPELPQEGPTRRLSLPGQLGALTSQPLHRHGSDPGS

The test addresses human ether-à-go-go-related gene (hERG) potassium channel (human, UniProt Q12809). The test is described as follows: primary screen, population patch clamp on CHO cells stably expressing hERG.
Turning to `Cc1ccc(C(=O)Nc2nc3ccc(Cl)cc3s2)o1`, the “hERG current change (%, negative = inhibition) at 1uM” value worked out at 9.87%.

In the case of `NC(=O)c1ccc(Oc2ncc(C(F)(F)F)cc2Cl)cc1`, the “hERG current change (%, negative = inhibition) at 1uM” value came out at 7.16%.

For `CCOC(=O)c1c(C)[nH]c(C(=O)OCC(=O)NC2(C#N)CCCCC2)c1C`, the “hERG current change (%, negative = inhibition) at 1uM” value was 2.05%.

`CCOC(=O)c1ccc(NC(=O)Cn2cnc3cc(C)c(C)cc32)cc1`: the “hERG current change (%, negative = inhibition) at 1uM” value stood at 11.1%.

In the case of `CCCS(=O)(=O)c1nc(S(=O)(=O)c2ccc(C)cc2)c(N2CCC(C(N)=O)CC2)s1`, the “hERG current change (%, negative = inhibition) at 1uM” value came to 14.8%.

With `COc1cccc(CN(CC(=O)NC2CCCC2)C(=O)CCC(=O)Nc2cc(C)on2)c1`, the “hERG current change (%, negative = inhibition) at 1uM” value is -2.51%.

`O=C(CC1SC(=Nc2ccc3c(c2)OCCO3)NC1=O)Nc1ccc(F)cc1F` (centres unmarked): the “hERG current change (%, negative = inhibition) at 1uM” value was 13%.

`C/C(=N\NC(=O)Cn1cnc2ccccc21)c1cccs1`: the “hERG current change (%, negative = inhibition) at 1uM” value turned out to be 17.2%.

Take `CC1=C/C(=C(/c2cc(C)c(O)c(Br)c2)c2ccccc2S(=O)(=O)[O-])C=C(Br)C1=O.[NH4+]`: the “hERG current change (%, negative = inhibition) at 1uM” value was determined as 11.3%.

With `CC(C)(C)C(=O)NC(=S)NCc1ccccc1`, the “hERG current change (%, negative = inhibition) at 1uM” value came to 11.9%.

Turning to `CC(C)=CC1C(C(=O)NCCOc2ccccc2)C1(C)C` (centres unmarked), the “hERG current change (%, negative = inhibition) at 1uM” value was 13.1%.

As to `O=C1NN(c2ccc(F)cc2)C(=O)/C1=C/c1cccs1`, the “hERG current change (%, negative = inhibition) at 1uM” value is given as 6.11%.

`CCC(NC(=O)CCc1c(C)c2cc3c4c(oc3cc2oc1=O)CCCC4)C(=O)O` (centres unmarked): the “hERG current change (%, negative = inhibition) at 1uM” value is recorded as 13.6%.

In the case of `O=C(CNS(=O)(=O)c1ccc2c(c1)OCCCO2)N1CCN(c2ccc(F)cc2)CC1`, the “hERG current change (%, negative = inhibition) at 1uM” value was -4.8%.

For `COc1ccc2c(C)cc(SCc3c(C)noc3C)nc2c1`, the “hERG current change (%, negative = inhibition) at 1uM” value is given as -1.12%.

Regarding `CCN(CC)C(=O)c1cc2c(=O)oc3ccccc3c2s1`, the “hERG current change (%, negative = inhibition) at 1uM” value was -2%.

As for `CC(NC(=O)c1c(Cl)cnn1C)C1CCCO1` (centres unmarked), the “hERG current change (%, negative = inhibition) at 1uM” value is listed as 9.9%.

For `COc1ccc(C2CC(=O)Nc3n[nH]c(-c4ccccc4)c32)cc1OC` (centres unmarked), the “hERG current change (%, negative = inhibition) at 1uM” value came out at 4.97%.

Consider `CC1(c2ccc(Cl)cc2)NC(=O)N(CC(=O)N2CCCC2)C1=O` (centres unmarked), for which the “hERG current change (%, negative = inhibition) at 1uM” value turned out to be 6.87%.

For the molecule `COc1cccc(C(=O)Oc2ccc3ccc(O)cc3c2)c1`, the “hERG current change (%, negative = inhibition) at 1uM” value was 13.3%.

Turning to `COCCn1c(SCC(=O)N2CCOCC2)nc2ccccc2c1=O`, the “hERG current change (%, negative = inhibition) at 1uM” value was 5.32%.

`O=C(Nc1cccc(Cl)c1)N(Cc1nc2ccccc2c(=O)[nH]1)C1CCCC1`: the “hERG current change (%, negative = inhibition) at 1uM” value is reported as 10.5%.

Take `COCCC(=O)N1CCCC(CNS(=O)(=O)c2ccc(OC)cc2)C1` (centres unmarked): the “hERG current change (%, negative = inhibition) at 1uM” value came out at 8.3%.

`O=C(c1ccc(F)cc1)c1ccc(-c2ccc(F)cc2)nc1`: the “hERG current change (%, negative = inhibition) at 1uM” value is recorded as 16.5%.

On to `Cc1ccc(C)c(C2C(C#N)=C(N)Oc3cc(C)oc(=O)c32)c1` (centres unmarked), for which the “hERG current change (%, negative = inhibition) at 1uM” value was 15.2%.

`CCC(=O)N/N=C/c1ccc(OS(=O)(=O)c2ccccc2)cc1`: the “hERG current change (%, negative = inhibition) at 1uM” value was found to be 10%.

On to `Cc1ccc(C(=O)NCc2ccccn2)cc1Cl`, for which the “hERG current change (%, negative = inhibition) at 1uM” value is 9.31%.

Regarding `Cc1cc(S(=O)(=O)NCc2ccccc2)ccc1OCC(=O)NCc1ccccn1`, the “hERG current change (%, negative = inhibition) at 1uM” value is given as -1.19%.

With `Cc1ccc(/C=N/Nc2cccc3cccnc23)c(O)c1`, the “hERG current change (%, negative = inhibition) at 1uM” value is listed as 15.5%.

Turning to `COCCNc1nnnc2c1sc1nc(N3CCOCC3)c3c(c12)CC(C)(C)OC3`, the “hERG current change (%, negative = inhibition) at 1uM” value is 12%.

`Cc1cc(OCC(=O)NCC(O)c2ccccc2)c2c3c(c(=O)oc2c1)CCCC3` (centres unmarked): the “hERG current change (%, negative = inhibition) at 1uM” value worked out at 5.73%.

For the molecule `COc1ccc(CNC(=O)Nc2ccc(C)cc2C)cc1`, the “hERG current change (%, negative = inhibition) at 1uM” value is given as 5.96%.

On to `COC(=O)C1Cc2c([nH]c3ccccc23)CN1` (centres unmarked), for which the “hERG current change (%, negative = inhibition) at 1uM” value amounted to 5.08%.

For the molecule `O=C1N[C@@H](Cc2ccccc2)C(=O)N2CCC[C@@H]12`, the “hERG current change (%, negative = inhibition) at 1uM” value is 13.4%.

In the case of `Cc1ccccc1C(=O)N1CCC(C(=O)Nc2ccc(C)c(S(=O)(=O)N3CCCCC3)c2)CC1`, the “hERG current change (%, negative = inhibition) at 1uM” value is 2.28%.

Take `CC(C)c1nnc(N2C(=O)c3oc4ccccc4c(=O)c3C2c2ccco2)s1` (centres unmarked): the “hERG current change (%, negative = inhibition) at 1uM” value is listed as 13.3%.

Turning to `COCC(=O)N/N=C/c1ccc(Sc2nc3ccccc3s2)o1`, the “hERG current change (%, negative = inhibition) at 1uM” value is recorded as -1.28%.

`CC(=O)c1cc(CN2C(=O)c3ccccc3C2=O)cs1`: the “hERG current change (%, negative = inhibition) at 1uM” value was 3.24%.

`COc1ccc(NC(=O)C2CCN(S(=O)(=O)c3ccccc3)CC2)cc1`: the “hERG current change (%, negative = inhibition) at 1uM” value turned out to be 19%.

On to `CN(Cc1ccccc1)C(=O)c1ccc2c(c1)OCCO2`, for which the “hERG current change (%, negative = inhibition) at 1uM” value stood at 8.34%.

As to `CCC(C)c1ccccc1N1CC(C(=O)Nc2ccc(C)c(S(=O)(=O)N3CCOCC3)c2)CC1=O` (centres unmarked), the “hERG current change (%, negative = inhibition) at 1uM” value came out at 13.4%.

Consider `Nc1nnnn1/N=C/c1ccccc1C(F)(F)F`, for which the “hERG current change (%, negative = inhibition) at 1uM” value came to 4.32%.

Turning to `Cc1cccc(NC(=O)c2nc[nH]c2C(=O)N[C@@H](C)C(=O)OC(C)(C)C)c1`, the “hERG current change (%, negative = inhibition) at 1uM” value is given as 15.5%.

For `COCCN=C1Sc2nc3c(C)cccc3cc2CN1Cc1ccco1`, the “hERG current change (%, negative = inhibition) at 1uM” value is 5.8%.

Take `COc1ccc(-c2nnn(Cc3ccccc3)n2)cc1`: the “hERG current change (%, negative = inhibition) at 1uM” value amounted to 16.5%.

`COc1ccc(S(=O)(=O)Nc2ccc(NC(C)=O)cc2)cc1Br`: the “hERG current change (%, negative = inhibition) at 1uM” value is given as 8.85%.

With `COC(=O)CCC/C=C1/SCC(NC(=O)c2ccccc2)C1O` (centres unmarked), the “hERG current change (%, negative = inhibition) at 1uM” value worked out at 5.92%.

Consider `O=C(NCc1cc(C(F)(F)F)cc(C(F)(F)F)c1)C1CC(c2cccc([N+](=O)[O-])c2)=NO1` (centres unmarked), for which the “hERG current change (%, negative = inhibition) at 1uM” value came out at 10.7%.

`Cc1ccc(CN2CCc3c(OCC(=O)Nc4cc(C)ccc4C)cccc3C2=O)cc1`: the “hERG current change (%, negative = inhibition) at 1uM” value is listed as -0.915%.

For `O=C(CNc1cccc2ccccc12)N/N=C/c1ccc([N+](=O)[O-])o1`, the “hERG current change (%, negative = inhibition) at 1uM” value is reported as -3.85%.

For `Cc1cc(C)cc(N(C(=O)c2csnn2)C(C(=O)NC2CCCC2)c2ccccn2)c1` (centres unmarked), the “hERG current change (%, negative = inhibition) at 1uM” value is reported as -0.609%.

As to `O=C(Nc1nccs1)c1cc(-c2ccccc2)nn1-c1ccccc1`, the “hERG current change (%, negative = inhibition) at 1uM” value is 6.15%.

In the case of `CC1CCN(c2nc3c(c(=O)n(C)c(=O)n3C)n2CCSc2nc3ccccc3s2)CC1`, the “hERG current change (%, negative = inhibition) at 1uM” value amounted to 0.675%.

For the molecule `CCCc1nc2oc(C(=O)c3ccccc3)c(N)c2c2c1COC(C)(C)C2`, the “hERG current change (%, negative = inhibition) at 1uM” value amounted to 21.9%.

For the molecule `CN(C)Cc1ccccc1Sc1ccc(O)cc1O.O.O=C(O)/C=C\C(=O)O`, the “hERG current change (%, negative = inhibition) at 1uM” value is 8.45%.

Consider `COCC(C)NS(=O)(=O)c1ccc(OC)cc1` (centres unmarked), for which the “hERG current change (%, negative = inhibition) at 1uM” value worked out at 9.51%.
